Measured values published in article PMC4336329 (PLoS ONE, 2015).
Screen size: about 310,000 compounds; about 14,000 (4.5%) showed an effect of 50% or more. Effects have a minus sign here. The list shows a part of the results.

Biological target: human ether-à-go-go-related gene (hERG) potassium channel (human, UniProt Q12809)
Test: primary screen, population patch clamp on CHO cells stably expressing hERG
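Further: peak tail current of the secondary pulse compared with the same well before compound.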

human ether-à-go-go-related gene (hERG) potassium channel, sequence (Q12809 whole entry, looked up): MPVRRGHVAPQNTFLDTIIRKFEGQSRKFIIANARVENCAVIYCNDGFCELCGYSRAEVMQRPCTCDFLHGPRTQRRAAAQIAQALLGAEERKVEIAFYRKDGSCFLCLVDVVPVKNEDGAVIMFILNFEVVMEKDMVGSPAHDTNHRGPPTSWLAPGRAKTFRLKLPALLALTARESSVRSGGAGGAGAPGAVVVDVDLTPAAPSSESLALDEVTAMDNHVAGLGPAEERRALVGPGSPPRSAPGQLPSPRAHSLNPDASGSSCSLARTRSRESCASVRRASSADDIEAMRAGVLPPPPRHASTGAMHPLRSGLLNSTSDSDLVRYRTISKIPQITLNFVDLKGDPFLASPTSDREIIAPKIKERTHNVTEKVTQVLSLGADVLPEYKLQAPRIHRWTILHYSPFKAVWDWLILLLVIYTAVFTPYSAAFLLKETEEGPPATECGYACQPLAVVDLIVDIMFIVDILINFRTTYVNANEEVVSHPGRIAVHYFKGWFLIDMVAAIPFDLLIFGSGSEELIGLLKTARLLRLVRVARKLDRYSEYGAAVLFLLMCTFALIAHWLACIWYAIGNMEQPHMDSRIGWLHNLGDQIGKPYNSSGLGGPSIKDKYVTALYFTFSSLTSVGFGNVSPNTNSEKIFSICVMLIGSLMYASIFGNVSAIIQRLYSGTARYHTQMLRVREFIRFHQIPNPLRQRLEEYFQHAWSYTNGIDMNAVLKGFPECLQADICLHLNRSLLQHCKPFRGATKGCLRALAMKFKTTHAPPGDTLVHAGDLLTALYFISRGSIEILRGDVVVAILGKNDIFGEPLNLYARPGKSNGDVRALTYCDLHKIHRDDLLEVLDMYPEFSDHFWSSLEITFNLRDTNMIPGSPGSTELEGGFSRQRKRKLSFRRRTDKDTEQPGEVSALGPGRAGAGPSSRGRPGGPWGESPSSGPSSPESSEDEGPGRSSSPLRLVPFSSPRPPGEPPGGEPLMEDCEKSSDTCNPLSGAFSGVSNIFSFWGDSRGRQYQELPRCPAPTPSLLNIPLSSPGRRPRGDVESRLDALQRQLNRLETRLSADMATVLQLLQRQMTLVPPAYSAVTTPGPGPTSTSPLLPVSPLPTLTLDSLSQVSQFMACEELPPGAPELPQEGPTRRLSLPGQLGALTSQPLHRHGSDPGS

SMILES	hERG current change (%, negative = inhibition) at 10uM [%]
CC(C)c1ccccc1OCC(=O)N(C)CC(=O)Nc1ccc(F)cc1	-28.1
CCOc1ncccc1C(=O)OCC(=O)N(CC(C)C)C1CCS(=O)(=O)C1 (centres unmarked)	3.36
COc1ccc(C(=O)COC(=O)C(CC(C)C)N2C(=O)c3ccccc3C2=O)cc1 (centres unmarked)	-5.93
COc1cc(NC(=O)c2ccco2)ccc1NC(=O)c1ccccc1Cl	-15.4
CCOC(=O)C(C)On1c(-c2ccccc2)nc2ccc([N+](=O)[O-])cc21 (centres unmarked)	-51.3
COc1cc(OC)cc(C(=O)NC(C(=O)Nc2ccc3nc(C)sc3c2)C(C)C)c1 (centres unmarked)	2.05
Cc1nn(-c2ccccc2)c(Cl)c1C(=O)OCC(=O)N(C)c1c(N)n(Cc2ccccc2)c(=O)[nH]c1=O	-1.04
CC(C)OCCCn1c(=O)c2ccccc2n2c(CCC(=O)O)nnc12	29.3
COc1ccc(CNC(=O)COC(=O)CCn2c(C)csc2=O)cc1OC	-17.2
C#CCn1c(S(=O)(=O)Cc2ccc(C)cc2)nc(-c2ccccc2)c1-c1ccccc1	21.7
COc1ccc(C(=O)Cn2cnc3ccccc3c2=O)cc1	-1.4
Cc1cccc(NC(=O)CSc2nnc(Cc3ccccc3)o2)c1	21
CC(=O)Nc1ccc(S(=O)(=O)Nc2ccccn2)cc1	1.04
CCCN1CCN(CCCNC(=O)Cn2nc(C)n3c(cc4cc(OC)ccc43)c2=O)CC1	-1.19
CC(=O)Cc1nsc(NC(=O)c2ccc(-c3ccccc3Cl)o2)n1	-9.77
CC1(C)CC(n2[nH]c(=O)c3c2NC(=O)CSC3c2ccc(F)cc2)CCO1 (centres unmarked)	-1.95
COc1ccc(-c2nnc(S/C(=C/c3ccc(Cl)cc3)C(=O)O)o2)cc1	27.4
Cc1ccc(C(=O)Nc2ccc3c(c2)ncn3C)cc1	0.434
O=C(CN1CCN(S(=O)(=O)c2ccc(F)cc2)CC1)Nc1cccc(C(F)(F)F)c1	-55.5

SMILES	hERG current change (%, negative = inhibition) at 10uM [%]
COc1ccc(N/C=C/C(=O)C(F)(F)F)cc1	-1.25
COc1ccc(CCNC(=O)Cn2nc(C(=O)O)c3ccccc3c2=O)cc1OC	20.3
CCOc1ccc(-n2c(SCC(=O)Nc3ccc(OC)cc3OC)nc3c(c2=O)SCC3)cc1	-8.96
CCCCC1CC(C)(C(=O)CSc2nc3ccccc3s2)OC1=O (centres unmarked)	-0.178
O=C1C2C(c3ccccc3)=NN(c3ccccc3)C2C(=O)N1c1ccccc1 (centres unmarked)	7.38
C=CCOC(=O)C1=C(C)N=C2SCCC(=O)N2C1/C=C/c1ccccc1 (centres unmarked)	3.78
O=C(c1cc(-c2ccc(Cl)cc2)n(-c2ccc(Cl)cc2)n1)N1CCOCC1	-80.8
CC(C)[C@H](NC(=O)N1CCC(Cc2ccccc2)CC1)C(=O)O	6.12
CCN1CC(CN(C)Cc2nc(-c3ccc(Cl)cc3)no2)CC1=O (centres unmarked)	-59.1
CCOC(=O)c1c(N)n(Cc2ccccc2)c2nc3ccccc3nc12	-29.6
COc1ccc(N/C=C2/CCCCC2=O)cc1	-7.02
CCN(CC)CCCNc1nc(N)c([N+](=O)[O-])c(NCCO)n1	8.83
Cc1ccccc1CN1CCN(CC(=O)NC(C)c2ccccc2)CC1 (centres unmarked)	-14.5
CCC(=O)OCC(=O)Nc1cc([N+](=O)[O-])ccc1Cl	30.6
CCC(CO)Nc1nc2ccc(Cl)cc2c2ccccc12 (centres unmarked)	16.3
CCN(C(=O)Cn1c(=O)n(Cc2ccccc2)c(=O)c2ccccc21)c1cccc(C)c1	-7.37
Cc1ccc(/C=C/C(=O)OCC(=O)NC(C)c2ccccc2)o1 (centres unmarked)	-4.46
O=C(NC1(C(F)(F)F)NC(=O)N(CC2CCCCC2)C1=O)c1ccco1 (centres unmarked)	2.29
COc1ccc(OCC(=O)N2CCN(C3CCC(c4ccccc4)CC3)CC2)cc1 (centres unmarked)	-54.4

SMILES	hERG current change (%, negative = inhibition) at 10uM [%]
CSc1nsc(N/N=C/c2ccccc2)c1C#N	15.2
Cc1cccc(C)c1NC(=S)N/N=C/c1ccccc1C(=O)O	9.17
CC(C)(C)c1ccc(C(=O)Nc2ccc([N+](=O)[O-])cn2)cc1	20.5
O=C(NC1CCCCC1)C(=S)NC1CCCCC1	19.4
Cc1csc2ncc(C(=O)Nc3ccccc3Cl)c(=O)n12	7.18
Cc1ccc(S(=O)(=O)n2nccc2-c2c(-c3ccccc3)noc2C)cc1	9.91
CCOC(=O)c1c(CN2CCOCC2)n(-c2ccccc2)c2cc(Br)c(O)cc12.Cl	-7.35
Cc1sc(-c2ccccn2)nc1OC(=O)c1ccc(Cl)cc1	9.44
CN(C)C(CNC(=O)CNC(=O)c1ccc(Br)cc1)c1ccccc1 (centres unmarked)	-3.48
COCC(=O)Nc1nnc(COc2ccccc2)s1	25.9
Cc1ccc(S(=O)(=O)NCc2ccccc2)cc1	15.3
CC(=O)NC(CSC(CC(=O)c1ccco1)c1ccc(C)cc1)C(=O)O (centres unmarked)	42.5
CCOC(=O)C(C(=O)c1ccccc1)C1CC(C)NC(=S)N1 (centres unmarked)	3.27
O=C(Nc1nc(-c2ccccc2)c(-c2ccccc2)s1)c1ccc(S(=O)(=O)N(CCCl)CCCl)cc1	3.66
CCN1C(=O)/C(=C/C=C2/SCCN2C)SC1=S	4.78
O=C(Cn1nc(C(F)F)cc1C(F)F)NNC(=S)Nc1ccc([N+](=O)[O-])cc1	18.2
COc1ccc(CCN2C(=O)CC(NCc3ccc4c(c3)OCO4)C2=O)cc1OC (centres unmarked)	-3.2
Cc1cc(C)c(NC(=O)CNC(=O)COC(=O)C2=COCCO2)c(C)c1	0.753
